According to article PMC4336329 (PLoS ONE, 2015):
Out of some 310,000 compounds screened, about 2,200 (0.71%) showed an effect of 50% or more. The effect is printed as a negative number. The list shows a part of the results. Where a SMILES comes first, the peptide text is derived from it. [ ]: non-standard residue; d: D form. pGlu = O=C1CC[C@@H](C(=O)O)N1; Thz = O=C(O)[C@@H]1CSCN1

molecular target: human ether-à-go-go-related gene (hERG) potassium channel (human, UniProt Q12809); test: primary screen, population patch clamp on CHO cells stably expressing hERG
Sequence (Q12809 whole entry, looked up): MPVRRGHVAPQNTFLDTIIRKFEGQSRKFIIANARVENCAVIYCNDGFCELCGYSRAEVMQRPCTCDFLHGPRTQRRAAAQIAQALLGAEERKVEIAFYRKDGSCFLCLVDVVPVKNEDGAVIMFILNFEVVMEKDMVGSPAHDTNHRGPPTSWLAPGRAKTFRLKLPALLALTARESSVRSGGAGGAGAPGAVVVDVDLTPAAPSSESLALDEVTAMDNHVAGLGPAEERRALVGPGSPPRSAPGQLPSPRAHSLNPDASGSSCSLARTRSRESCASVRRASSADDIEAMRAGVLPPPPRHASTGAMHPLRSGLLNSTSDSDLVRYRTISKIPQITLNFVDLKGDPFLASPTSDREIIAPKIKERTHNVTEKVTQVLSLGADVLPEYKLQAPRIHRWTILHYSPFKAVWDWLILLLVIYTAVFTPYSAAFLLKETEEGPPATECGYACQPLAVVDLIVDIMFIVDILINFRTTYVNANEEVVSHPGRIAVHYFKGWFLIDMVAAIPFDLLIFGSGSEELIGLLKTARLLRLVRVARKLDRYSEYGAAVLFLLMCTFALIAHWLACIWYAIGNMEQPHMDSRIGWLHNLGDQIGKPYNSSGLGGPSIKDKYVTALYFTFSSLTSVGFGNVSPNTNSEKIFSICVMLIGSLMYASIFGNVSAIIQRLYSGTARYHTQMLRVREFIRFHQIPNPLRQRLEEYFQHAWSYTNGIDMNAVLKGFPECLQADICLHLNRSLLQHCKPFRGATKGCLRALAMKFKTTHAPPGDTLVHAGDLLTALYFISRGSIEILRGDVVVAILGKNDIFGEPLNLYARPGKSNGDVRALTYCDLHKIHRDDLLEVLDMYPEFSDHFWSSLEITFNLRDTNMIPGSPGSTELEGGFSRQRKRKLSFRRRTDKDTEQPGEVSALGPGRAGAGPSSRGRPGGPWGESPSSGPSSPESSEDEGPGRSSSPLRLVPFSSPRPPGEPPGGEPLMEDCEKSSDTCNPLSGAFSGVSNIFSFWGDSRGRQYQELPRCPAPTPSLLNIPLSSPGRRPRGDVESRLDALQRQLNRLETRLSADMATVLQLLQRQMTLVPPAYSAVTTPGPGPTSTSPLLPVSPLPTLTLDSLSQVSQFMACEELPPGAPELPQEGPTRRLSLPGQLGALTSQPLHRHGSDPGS

Row | SMILES | hERG current change (%, negative = inhibition) at 1uM [%]
1 | O=S(=O)(NCCSc1ccc(Cl)cc1)c1ccc2c(c1)OCCO2 | 4.16
2 | COCC(C)NC(=O)c1cc2cccc([N+](=O)[O-])c2[nH]1 (centres unmarked) | 7.87
3 | COc1ccc(-n2c(SCC(=O)C(C)(C)C)nc3c(sc(=S)n3-c3ccccc3)c2=O)c(OC)c1 | 14.6
4 | CC1CN(C(=S)Nc2ccc(SC(F)F)cc2)CC(C)O1 (centres unmarked) | -4.05
5 | CC(=O)C1C(c2ccco2)c2c(noc2C)CC1(C)O (centres unmarked) | 1.18
6 | CC(C)C(=O)Nc1ccnc(-c2cccnc2)n1 | 2.24
7 | COc1cc(NC(=O)C(C)Oc2ccccc2)c(C(=O)O)cc1OC (centres unmarked) | 9.7
8 | O=C(OCC(=O)N1CCCC1=O)c1nc(Cl)ccc1Cl | 11.9
9 | Cc1csc(NC(=O)c2nn(C)c(C)c2[N+](=O)[O-])n1 | 12.8
10 | COc1cc(Nc2nc3ccc(Cl)cc3n3cnnc23)cc(OC)c1OC | 14.1
11 | O=c1cc(/N=C/c2coc3cc(Br)ccc3c2=O)[nH]c(=S)[nH]1 | 16.6
12 | Cc1ccc(CSCC(=O)N2CCCC2)cc1 | 10.7
13 | CC(CCc1ccccc1)NC(=O)CSc1nc(N)cc(N)n1 (centres unmarked) | 5.09
14 | CCc1nc(Sc2nc(C)cc(C)n2)c2oc3ccccc3c2n1 | 10.6
15 | Cn1nc(-c2ccccn2)nc2c(=O)n(C)c(=O)nc1-2 | 6.45
16 | C[C@H](NC(=O)C1CC(=O)N(c2ccc(F)cc2)C1)C(=O)N1CCCCC1 (some centres unmarked) | 6.48
17 | O=C(NCc1ccccc1)NC(=O)c1ccccc1F | 18.3
18 | CC12CCC(C(=O)Nc3ccc(Br)cn3)(OC1=O)C2(C)C (centres unmarked) | 12.5
19 | CC(C)n1ncc(N2CCOCC2)c(Cl)c1=O | 15
20 | CN(CC(=O)Nc1ccccc1C(F)(F)F)Cc1c(O)ccc2ccccc12 | 14.6
21 | C/C(=N\O)c1cc(Cl)ccc1O | 13.4
22 | CN(C)c1ccc(/C=C(/NC(=O)c2ccccc2)C(=O)N/N=C/c2ccc([N+](=O)[O-])c(O)c2)cc1 | 2.08

Row | SMILES | hERG current change (%, negative = inhibition) at 1uM [%]
23 | COC(=O)COc1ccc(S(=O)(=O)Nc2ccc3c(c2)OCCO3)cc1Cl | 13.6
24 | COc1ccc(CNC(=O)C2CCCN(S(=O)(=O)c3ccc(F)cc3)C2)cc1 (centres unmarked) | 7
25 | O=C(Nn1cnnc1)c1ccc(Cl)cc1 | 12.2
26 | CCCn1c(N)c(C(=O)CSc2nnc(-c3ccco3)n2Cc2ccccc2)c(=O)[nH]c1=O | -4.53
27 | COc1ccc(C2=C(CN(C)C)C(c3ccccc3)c3ccccc3O2)cc1.Cl (centres unmarked) | 15.1
28 | O=C(NCCCn1ccnc1)/C(=C\c1ccccc1Cl)NC(=O)c1ccccc1 | 6.1
29 | COc1cccc(CNc2ccc(N3CCC(C)CC3)cc2)c1OC | 12.2
30 | O=C(COC(=O)c1cccnc1Cl)c1ccc(F)cc1 | 13.5
31 | COc1ccc(NC2=NCC(C)S2)cc1 (centres unmarked) | 2
32 | O=C(NC1(C(F)(F)F)NC(=O)N(Cc2cccnc2)C1=O)c1ccccc1Cl (centres unmarked) | 0.26
33 | C/C(=N\NC(=O)c1ccccc1F)c1cccc(NC(=O)c2ccc(C)cc2)c1 | 11
34 | Cc1cccc(C(=O)OCC(=O)NC(=O)Cc2ccccc2)c1O | 12.1
35 | O=C(Nc1nccs1)c1ccc(-c2ccccc2Cl)o1 | 11.8
36 | COc1ccccc1CCNC(=O)C(=O)c1cn(CC(=O)N2CCOCC2)c2ccccc12 | -0.332
37 | O=C(c1cccs1)N1CCN(c2nnc(-c3ccccc3)c3ccccc23)CC1 | -15
38 | Cc1cc2ncc(-c3cccs3)nc2cc1C | 13.6
39 | O=C1CC[C@@H](C(=O)N2CSC[C@H]2C(=O)O)N1 ([pGlu]-[Thz]-OH) | 17.3
40 | COc1cc(/C=N/N2CCCCC2)cc([N+](=O)[O-])c1O | 14.7
41 | CN=C1SC(CC(=O)Nc2ccc(F)cc2F)C(=O)N1/N=C/c1ccc(OC(F)F)c(OC)c1 (centres unmarked) | 8.6
42 | CC(=O)Nc1ccccc1NC(=O)C/C(C)=N/NC(=O)C1CCCCC1 | 13.6
43 | O=C(Cc1cccs1)Nc1nnc(CCc2ccccc2)s1 | 11.9
44 | COc1ccccc1NC(=O)CCC(=O)OCc1ccc([N+](=O)[O-])cc1 | -0.782
